Article PMC7719147
No constants are given. Whether binding was seen depends on the method and setting. Binding seen in cells or lysates may run through a third protein. Some results given as binding are weak or reduced against the parent protein; the word gives no strength. Sequences can lack the tags named with a protein.

The chains behind the UniProt entries cited, without tags or fusion partners.
UniProt Q7Z434: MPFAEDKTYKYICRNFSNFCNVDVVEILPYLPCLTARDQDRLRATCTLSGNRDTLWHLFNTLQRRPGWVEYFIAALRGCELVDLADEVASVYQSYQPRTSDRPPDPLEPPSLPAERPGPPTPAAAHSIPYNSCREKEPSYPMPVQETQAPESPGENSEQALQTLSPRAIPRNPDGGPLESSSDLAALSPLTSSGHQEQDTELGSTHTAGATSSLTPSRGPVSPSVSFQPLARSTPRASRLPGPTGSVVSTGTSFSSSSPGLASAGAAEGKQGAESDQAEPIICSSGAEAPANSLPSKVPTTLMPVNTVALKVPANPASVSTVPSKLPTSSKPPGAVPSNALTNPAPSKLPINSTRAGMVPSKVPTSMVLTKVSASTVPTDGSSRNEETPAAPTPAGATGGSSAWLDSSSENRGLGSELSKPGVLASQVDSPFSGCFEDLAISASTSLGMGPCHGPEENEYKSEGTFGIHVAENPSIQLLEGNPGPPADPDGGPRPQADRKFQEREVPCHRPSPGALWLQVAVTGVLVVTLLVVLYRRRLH

T1: TRIM35-V5 (tripartite motif containing 35, V5-tagged) (human) (UniProt Q9UPQ4)
T1 sequence: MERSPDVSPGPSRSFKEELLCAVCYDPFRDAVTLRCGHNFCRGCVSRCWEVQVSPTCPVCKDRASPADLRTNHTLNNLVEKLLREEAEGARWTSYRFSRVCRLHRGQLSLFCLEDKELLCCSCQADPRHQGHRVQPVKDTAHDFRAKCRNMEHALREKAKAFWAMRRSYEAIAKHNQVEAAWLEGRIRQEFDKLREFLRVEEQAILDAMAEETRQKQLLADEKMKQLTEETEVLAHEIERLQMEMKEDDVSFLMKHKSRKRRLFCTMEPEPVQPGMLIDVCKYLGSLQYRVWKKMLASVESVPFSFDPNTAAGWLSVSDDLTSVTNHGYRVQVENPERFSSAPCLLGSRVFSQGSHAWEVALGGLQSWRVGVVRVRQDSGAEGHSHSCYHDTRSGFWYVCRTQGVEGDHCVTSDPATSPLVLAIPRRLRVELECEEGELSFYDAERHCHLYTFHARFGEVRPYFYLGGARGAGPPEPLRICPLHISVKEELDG


Experiments:
Assay in all cases: co-IP
[1] = biological target: T1, TRIM35-V5 (tripartite motif containing 35, V5-tagged) (human)
[2] = biological target: VISA (in HEK293T cells expressing IKKε-Flag, Fig. 5J) (human (endogenous in HEK293T)) (UniProt Q7Z434)
[3] = biological target: VISA-Myc (human (ORF amplified from HEK293T or A549 cells)) (UniProt Q7Z434)

binding [1] | binding [2] | binding [3] | Binder
no binding | – | – | IRF3-Flag (interferon regulatory factor 3, Flag-tagged) (protein, UniProt Q14653 1-427) MGTPKPRILPWLVSQLDLGQLEGVAWVNKSRTRFRIPWKHGLRQDAQQEDFGIFQAWAEATGAYVPGRDKPDLPTWKRNFRSALNRKEGLRLAEDRSKDPHDPHKIYEFVNSGVGDFSQPDTSPDTNGGGSTSDTQEDILDELLGNMVLAPLPDPGPPSLAVAPEPCPQPLRSPSLDNPTPFPNLGPSENPLKRLLVPGEEWEFEVTAFYRGRQVFQQTISCPEGLRLVGSEVGDRTLPGWPVTLPDPGMSLTDRGVMSYVRHVLSCLGGGLALWRAGQWLWAQRLGHCHTYWAVSEELLPNSGHGPDGEVPKDKEGGVFDLGPFIVDLITFTEGSGRSPRYALWFCVGESWPQDQPWTKRLVMVKVVPTCLRALVEMARVGGASSLENTVDLHISNSHPLSLTSDQYKAYLQDLVEGMDFQGPGES
no binding | – | – | TBK1-Flag (TANK-binding kinase 1, Flag-tagged) (protein, UniProt Q9UHD2 1-729) MQSTSNHLWLLSDILGQGATANVFRGRHKKTGDLFAIKVFNNISFLRPVDVQMREFEVLKKLNHKNIVKLFAIEEETTTRHKVLIMEFCPCGSLYTVLEEPSNAYGLPESEFLIVLRDVVGGMNHLRENGIVHRDIKPGNIMRVIGEDGQSVYKLTDFGAARELEDDEQFVSLYGTEEYLHPDMYERAVLRKDHQKKYGATVDLWSIGVTFYHAATGSLPFRPFEGPRRNKEVMYKIITGKPSGAISGVQKAENGPIDWSGDMPVSCSLSRGLQVLLTPVLANILEADQEKCWGFDQFFAETSDILHRMVIHVFSLQQMTAHKIYIHSYNTATIFHELVYKQTKIISSNQELIYEGRRLVLEPGRLAQHFPKTTEENPIFVVSREPLNTIGLIYEKISLPKVHPRYDLDGDASMAKAITGVVCYACRIASTLLLYQELMRKGIRWLIELIKDDYNETVHKKTEVVITLDFCIRNIEKTVKVYEKLMKINLEAAELGEISDIHTKLLRLSSSQGTIETSLQDIDSRLSPGGSLADAWAHQEGTHPKDRNVEKLQVLLNCMTEIYYQFKKDKAERRLAYNEEQIHKFDKQKLYYHATKAMTHFTDECVKKYEAFLNKSEEWIRKMLHLRKQLLSLTNQCFDIEEEVSKYQEYTNELQETLPQKMFTASSGIKHTMTPIYPSSNTLVEMTLGMKKLKEEMEGVVKELAENNHILERFGSLTMDGGLRNVDCL
– | binds | binds | IKKε-Flag (IkB kinase-ε, Flag-tagged) (protein, UniProt Q14164 1-716) MQSTANYLWHTDDLLGQGATASVYKARNKKSGELVAVKVFNTTSYLRPREVQVREFEVLRKLNHQNIVKLFAVEETGGSRQKVLVMEYCSSGSLLSVLESPENAFGLPEDEFLVVLRCVVAGMNHLRENGIVHRDIKPGNIMRLVGEEGQSIYKLTDFGAARELDDDEKFVSVYGTEEYLHPDMYERAVLRKPQQKAFGVTVDLWSIGVTLYHAATGSLPFIPFGGPRRNKEIMYRITTEKPAGAIAGAQRRENGPLEWSYTLPITCQLSLGLQSQLVPILANILEVEQAKCWGFDQFFAETSDILQRVVVHVFSLSQAVLHHIYIHAHNTIAIFQEAVHKQTSVAPRHQEYLFEGHLCVLEPSVSAQHIAHTTASSPLTLFSTAIPKGLAFRDPALDVPKFVPKVDLQADYNTAKGVLGAGYQALRLARALLDGQELMFRGLHWVMEVLQATCRRTLEVARTSLLYLSSSLGTERFSSVAGTPEIQELKAAAELRSRLRTLAEVLSRCSQNITETQESLSSLNRELVKSRDQVHEDRSIQQIQCCLDKMNFIYKQFKKSRMRPGLGYNEEQIHKLDKVNFSHLAKRLLQVFQEECVQKYQASLVTHGKRMRVVHETRNHLRLVGCSVAACNTEAQGVQESLSKLLEELSHQLLQDRAKGAQASPPPIAPYPSPTRKDLLLHMQELCEGMKLLASDLLDNNRIIERLNRVPAPPDV
